# Over roughly 110,000 compounds, “z-score” has its median near -0.1; the highest 2% begin near 2. The list shows a part of the results.
# Biological target: Metabotropic glutamate receptor 8 (Rattus norvegicus) (UniProt P70579)
# Assay: rat mGluR8 modulators via GIRK flux, primary screen, cell-based, thallium flux, HTS (AID 488969)
# Settings: HEK293 rat mGluR8, GIRK (G protein-gated inwardly rectifying potassium channel) thallium flux, FluoZin2; at 10 µM; stronger effect = higher value; submaximal glutamate (EC20) added with thallium
# Chain of UniProt P70579 (P70579 whole entry, looked up): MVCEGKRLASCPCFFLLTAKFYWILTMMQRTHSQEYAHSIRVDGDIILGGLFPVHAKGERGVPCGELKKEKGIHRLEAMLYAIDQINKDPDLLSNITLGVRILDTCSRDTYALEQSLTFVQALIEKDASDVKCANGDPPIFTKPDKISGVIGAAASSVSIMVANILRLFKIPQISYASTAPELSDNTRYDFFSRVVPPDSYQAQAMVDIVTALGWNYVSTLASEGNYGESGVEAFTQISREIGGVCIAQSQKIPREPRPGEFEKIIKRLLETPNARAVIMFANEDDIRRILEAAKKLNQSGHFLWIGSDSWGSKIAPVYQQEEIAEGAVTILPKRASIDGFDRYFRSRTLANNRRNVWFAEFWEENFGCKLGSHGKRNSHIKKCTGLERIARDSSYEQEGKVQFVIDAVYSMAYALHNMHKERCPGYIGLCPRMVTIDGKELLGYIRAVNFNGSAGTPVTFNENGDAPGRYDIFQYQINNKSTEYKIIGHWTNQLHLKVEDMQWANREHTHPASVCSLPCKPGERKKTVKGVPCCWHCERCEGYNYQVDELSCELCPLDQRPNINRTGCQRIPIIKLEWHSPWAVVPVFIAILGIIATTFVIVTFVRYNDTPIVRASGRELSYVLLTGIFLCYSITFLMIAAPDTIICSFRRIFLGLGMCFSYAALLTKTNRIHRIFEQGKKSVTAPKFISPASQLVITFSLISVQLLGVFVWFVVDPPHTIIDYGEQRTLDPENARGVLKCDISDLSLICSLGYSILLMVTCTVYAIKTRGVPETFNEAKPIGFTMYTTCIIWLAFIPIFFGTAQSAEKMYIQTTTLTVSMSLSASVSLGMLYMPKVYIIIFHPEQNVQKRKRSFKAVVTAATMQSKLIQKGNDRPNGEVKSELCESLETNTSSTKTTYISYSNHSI
row,SMILES,z-score
1,O=C(CSc1nnc(-c2ccccc2)n1-c1ccccc1)NCc1ccco1,-0.351
2,CC1(C)Cc2cccc(OCC(=O)N3CCN(c4ccccc4)CC3)c2O1,0.0091
3,CCCC(=O)Nc1nc(C)c(-c2csc(Nc3ccccc3OC)n2)s1,-0.246
4,Cc1ccccc1-c1nc2cc(N)ccc2o1,-0.102
5,Clc1ccc2nc(N3CCCCC3)sc2c1,-0.243
6,Cc1ccc(C(=O)NC(NCC2CCCO2)C(Cl)(Cl)Cl)cc1 (centres undefined),0.317
7,O=C(COc1ccc([N+](=O)[O-])cc1)Nc1ccc(C(=O)NCc2cccnc2)cc1,-0.146
8,CCN(CC)S(=O)(=O)c1ccc(C(=O)NNc2nc(-c3ccccc3)c3cc(Br)ccc3n2)cc1,-0.309
9,CC(=O)n1nc(-c2ccc(Cl)cc2)nc1NCc1ccco1,0.572
10,O=C(COc1ccc2c(c1)OCO2)NC12CC3CC(CC(C3)C1)C2,-0.55
11,Cc1ccc(NC(=O)Cc2ccc(F)cc2)cc1,0.722
12,CC1CCc2c(sc3ncnc(NCCCOC(C)C)c23)C1 (centres undefined),-0.603
13,Cc1cc(C(=O)NCc2cccs2)c(C)o1,-0.172
14,CC(=O)OC1C(OC(C)=O)N(C(C)=O)C(=O)N1C(C)=O (centres undefined),0.00671
15,OCCN1CCN(CCOc2cccc(Cl)c2)CC1,0.398
16,CCOc1ccc(Cn2c(SCCCCC#N)nc3c2c(=O)n(C)c(=O)n3C)cc1OCC,-0.246
17,N#C/C(=C\c1ccc(-c2ccc(Br)cc2)o1)C(=O)NCCc1c[nH]c2ccccc12,0.016
18,Cc1c(Cl)cnc(NC(=O)COC(=O)c2ccc([N+](=O)[O-])s2)c1Cl,0.683
19,COc1ccc(C2(CNC(=O)c3ccc(Br)o3)CCOCC2)cc1,0.228
20,c1ccc(C2=NNC(=NC3CC3)SC2)cc1,-0.0566
21,CC1(C)CC(=O)C2=C(C1)NC(=O)CC2c1ccc(F)cc1 (centres undefined),-0.481
22,O=C1C=C(Nc2ccc(Cl)cc2)CC(c2ccco2)C1 (centres undefined),-0.447
23,COC(=O)C1=C(C)N(c2ccc(Cl)c(Cl)c2)C(=O)C1,0.13

row,SMILES,z-score
1,NC(N)=Nc1nc(CCN2C(=O)c3ccccc3C2=O)cs1,0.391
2,Cc1ccc(CS(=O)(=O)CCC(=O)NCc2ccccn2)cc1,0.395
3,COC(=O)c1ccc(NC2CC(=O)N(c3ccccc3C)C2=O)cc1 (centres undefined),0.283
4,Cc1ccc(/C=C2\SC(=S)N(Cc3ccccc3)C2=O)o1,0.217
5,CCn1c(COc2ccc(Cl)cc2)nnc1SCC(=O)Nc1ccc2c(c1)OCO2,-1.3
6,O=C(O)CCc1ccc(-c2ccc(Cl)cc2)n1CCC(=O)O,0.137
7,Cc1ccc(N2CC(c3nc4ccccc4n3C)CC2=O)cc1C (centres undefined),-0.315
8,C=CCSc1ncc(C#N)c(N)n1,-0.187
9,O=C(O)CCCC(=O)NCCCCc1ccccc1,0.0123
10,Cc1ccc2nsnc2c1S(=O)(=O)N(Cc1ccco1)Cc1cc2cccc(C)c2[nH]c1=O,0.0349
11,CC(C(=O)Nc1ccccc1C(=O)N1CCCC1)n1nnc2ccccc21 (centres undefined),0.0702
12,Cc1ccc(/C(COc2ccccc2O)=N\O)cc1,0.516
13,CC(C)CCNC(=O)CNC(=S)N(CCCN1CCOCC1)Cc1cccs1,0.225
14,Nc1cccnc1Sc1cc(Cl)cc(Cl)c1,-0.059
15,COc1cccc(NC(=O)N(C2CCCCC2)C(C)c2cccs2)c1 (centres undefined),-0.017
16,CCCC(=O)Nc1ccc(NC(=O)c2ccco2)cn1,1.89
17,O=C(NC(NC(=S)Nc1ccccc1)C(Cl)(Cl)Cl)c1cccc(Cl)c1 (centres undefined),1.95
18,Nc1nnc(SCC(=O)N2CCc3ccccc32)n1-c1ccccc1,-0.0448
19,Nc1nc(CN2CCC(Cc3ccccc3)CC2)nc(Nc2ccccc2)n1,2.39
20,O=C(COc1cccc2cccnc12)N1CCc2ccccc2C1,0.452
21,CCCCCOc1ccc(Br)cc1/C(C)=N/NC1=NCCN1,1.05
22,CS(=O)(=O)Nc1nnc(Cc2ccccc2)s1,-0.552
23,COc1ccc(-c2ccc(CCC(=O)O)n2CC(C)C)cc1,0.382

row,SMILES,z-score
1,Cc1cccc(-n2c(SCC(=O)Nc3ncc(Cl)cc3Cl)nc3ccccc32)c1,-0.585
2,O=C1C2C3C=CC([C@@H]2C(=O)N1c1nccs1)C31CC1 (some centres undefined),-0.0608
3,CCOC(=O)CCP(=O)(O)C(C)(O)c1ccccc1 (centres undefined),0.0487
4,O=C(Nc1nnc(C2CC2)o1)c1ccc(S(=O)(=O)N2CCCc3ccccc32)cc1,1.85
5,COC(=O)c1ccc(N2CCCCC2)c(NS(=O)(=O)c2ccc(C)cc2)c1,-0.0153
6,COc1ccc(C2c3c(-c4ccccc4O)n[nH]c3C(=O)N2CCc2ccc(OC)c(OC)c2)cc1 (centres undefined),0.745
7,Cc1oc(-c2ccc(Cl)cc2)nc1CS(=O)CC(=O)NCCN1CCCC1 (centres undefined),0.358
8,COc1cccc2cc(-c3cn4cccc(C)c4n3)c(=O)oc12,-0.32
9,COc1ccccc1N1CCN(c2nc3c(C)cccn3c(=O)c2C=O)CC1,-0.237
10,O=Cc1ccc(N2CCCC2)c(F)c1,0.126
11,O=C(O)c1ccc2c(c1)ncn2C1CCCCCC1,0.321
12,Cc1c(NC(=O)/C(C#N)=C/c2ccc(-c3ccc(Cl)c(Cl)c3)o2)c(=O)n(-c2ccccc2)n1C,0.0364
13,O=[N+]([O-])c1ccccc1NCCNc1ncc(C(F)(F)F)cc1Cl,-0.0374
14,CCCCn1c(-c2nn(C)cc2Cl)n[nH]c1=S,-0.937
15,CCn1c(SCC(=O)Nc2nnc(C)s2)nnc1-c1ccncc1,-0.0598
16,COc1ccccc1N(C(=O)NCc1ccccc1)C1=NCC(C)S1 (centres undefined),-0.982
17,CN(C)c1nc(SCC#N)nc(N2CCOCC2)n1,0.0471
18,O=C1CCC(=O)N1c1cccc(-c2nc3ccccc3o2)c1,-0.545
19,C/C(=N\NC(=O)c1ccc(Br)cc1)C1C(=O)c2ccccc2C1=O,-0.301
20,COc1ccc(Nc2nnc(SCc3cc(=O)n4ccsc4n3)s2)cc1,-0.097
21,COc1ccc(CNC(=O)C2CC(C)=C(C)CC2C(=O)O)cc1 (centres undefined),0.845
22,O=C(N/N=C/c1c(Cl)cccc1Cl)c1ccc(F)cc1,-0.476
23,CCCC(c1nnnn1C1CCCC1)N1CCN(C(=O)c2ccco2)CC1 (centres undefined),-0.111

row,SMILES,z-score
1,CC1CCCCC1N=CC1=C(O)CC(C)(C)CC1=O (centres undefined),0.463
2,O=C(CN(Cc1ccco1)C(=O)c1ccc(Cl)cc1)Nc1ccc(Cl)c(Cl)c1,-0.0983
3,Cc1nc(CC(=O)NNS(=O)(=O)c2ccc3ccccc3c2)cs1,0.0826
4,COC(=O)c1c(NC(=O)c2ccco2)sc(C)c1C,0.752
5,Cc1cccnc1NS(=O)(=O)c1cccc([N+](=O)[O-])c1,0.034
6,CCN(CC)c1ccc(NS(=O)(=O)c2ccc3c(c2)oc(=O)n3C)c(C)c1,0.308
7,CCCCOC(=O)Nc1nc(CC(=O)OCC)cs1,0.0147
8,CCC1Oc2ccc(C)cc2N(CC(=O)N2CCN(c3ccc(F)cc3)CC2)C1=O (centres undefined),-0.325
9,O=S(=O)(Nc1ccc2c3c(cccc13)CC2)c1ccc(F)cc1,-0.364
10,CCc1cc2cc(C)ccc2nc1SCC(=O)Nc1cc(C)on1,0.28
11,CCOC(=O)CN1NC2(CCC(C(C)(C)C)CC2)NC1=S (centres undefined),2.66
12,Cc1ccccc1NC(=O)C(C#N)Cc1cccnc1 (centres undefined),2.26
13,CC(=O)Nc1ccc(C(=O)NC(CC(=O)O)c2ccc(Cl)cc2)cc1 (centres undefined),-0.216
14,Cc1c(C=O)c2ccccc2n1CC(=O)N1CCc2ccccc2C1,-0.384
15,CC1=C/C(=N\NC(=O)c2ccc(O)cc2)CC1,-0.282
16,C=CCn1c(C)cc(C(=O)Cn2ncc(Cl)c(Cl)c2=O)c1C,-0.975
17,Cc1sc(NC(=O)CCC(=O)O)c(C(N)=O)c1-c1ccccc1,-0.002
18,O=C(COc1ccc(/C=N/NS(=O)(=O)c2ccccc2)cc1)NCc1ccccc1,-0.192
19,COc1ccc(NC(=O)CN2C(=O)CSC(C)C2=O)c(OC)c1 (centres undefined),-0.219
20,c1ccc(CSc2nnc(Cc3ccccn3)o2)cc1,0.201
21,COc1ccccc1CN(C(=O)CCl)C(C(=O)NC1CCCCC1)c1ccncc1 (centres undefined),-0.106
22,CC(=O)N1CCCc2cc(S(=O)(=O)N(C)Cc3ccccc3)ccc21,0.884
23,O=CN1CCN(C(C(=O)NC2CCCC2)c2ccc(Cl)cc2)CC1 (centres undefined),0.0147

row,SMILES,z-score
1,COc1ccc(-c2nc(C3CCCCC3)no2)cc1OC,0.462
2,COc1ccc2c(CC(=O)OCC(=O)Nc3cc(C)c(C)cc3[N+](=O)[O-])coc2c1,-0.287
3,CCOC(=O)C1=C(c2ccccc2)NC(=S)NC1c1ccc(C)c([N+](=O)[O-])c1 (centres undefined),-0.641
4,CCN(c1ccccc1)S(=O)(=O)c1ccc(Cl)c(NC(=O)COC(=O)c2ccc(Cl)c(N)c2)c1,-0.0954
5,COc1ccc(C2CC(C(F)(F)F)n3nc(CO)c(Cl)c3N2)cc1OC (centres undefined),0.545
6,CSc1nsc(SC)c1NC(=O)OC1CCCCC1,-0.15
7,O=C(CCN1C(=O)COc2ccccc21)N1CCN(c2ccccn2)CC1,0.258
8,Cn1c(/N=C/c2cccs2)nc2ccccc21,-0.613
9,Cc1ccc2c(c1)c1c3n2CCN(C(=O)C2CC2)C3CCC1 (centres undefined),0.0306
10,Cc1nnc2n(C3CCCCC3)c(=O)c3c4c(sc3n12)CCC4,-0.862
11,OCCNc1nc2ccccc2n1-c1ncnc2sc3c(c12)CCC3,0.385
12,COc1cc(/C=C(\C#N)C(=O)NCC2CCCO2)ccc1O (centres undefined),0.279
13,CN(C)S(=O)(=O)c1ccc(NC(=O)CN2CCN(C(c3ccccc3)c3ccccc3)CC2)cc1,-0.193
14,CCOc1ccc(C(c2nnnn2Cc2ccccc2)N2CCN(C(=O)c3ccco3)CC2)cc1 (centres undefined),-0.338
15,Cc1c(C(N)=O)c(-c2ccccc2)nn1-c1ccccc1,-0.0667
16,CCOC(=O)c1c(-c2ccc(OC)cc2)nc2nonc2c1N,0.0715
17,Cc1cc2cc(CN(Cc3cccs3)C(=S)NCc3ccco3)c(=O)[nH]c2cc1C,0.105
18,COc1ccc(CCNC(=O)CCCCCN2C(=O)c3ccccc3C2=O)cc1OC,0.301
19,O=C(Oc1oc(-c2ccco2)nc1C=Nc1ccc(Cl)cc1)c1ccco1,-0.0203
20,CC(C)(C)N(NC(=O)Nc1ccc(F)cc1)C(=O)c1ccccc1,0.955
21,O=C(/C(=C/c1ccc(Cl)cc1)c1nc2ccccc2[nH]1)c1ccccc1,-0.287
22,Cc1ccc(OCC(=O)NNC(=O)C(=O)NC(C)(C)C)cc1,2.61

# Reference: PubChem BioAssay AID488969 (Vanderbilt High Throughput Screening Facility, 2010)
